Data: PubChem BioAssay AID504333 (National Center for Advancing Translational Sciences (NCATS), 2011)
“And” between values parts separate entries of the source, which are not always exact repeats. Equal entries are not always repeated. Screen size: about 360,000 compounds; about 16,000 (4.4%) were called active. This list was built around the results that the source calls inconclusive (neither active nor inactive); the mix of calls is not that of the screen. Calls follow the shape of the dose curve; as a rule, active = well fitted inhibition curve with a large enough effect; inconclusive = small, poorly fitted or top-dose-only effect; inactive = no such curve, though single readings can be large or run the other way. Where the call is inconclusive, the potency comes from a doubtful curve fit.
% is scaled to controls: 0 for no effect and ±100 for the full control effect; potency is read from the fitted curve at half-maximal effect; tags tell the direction and shape of the fitted curve.
Also: nearly all actives have a fitted effect of over 60% in size.

These molecules were tested against Bromodomain adjacent to zinc finger domain protein 2B (Homo sapiens) (UniProt Q9UIF8) (assay: qHTS Assay for Inhibitors of BAZ2B). Details: AlphaScreen BAZ2B-H3K14Ac peptide displacement; activity change, negative = inhibition: at 114 µM (top of the series).
UniProt Q9UIF8, sequence (Q9UIF8 whole entry, looked up, the tested form may be a part): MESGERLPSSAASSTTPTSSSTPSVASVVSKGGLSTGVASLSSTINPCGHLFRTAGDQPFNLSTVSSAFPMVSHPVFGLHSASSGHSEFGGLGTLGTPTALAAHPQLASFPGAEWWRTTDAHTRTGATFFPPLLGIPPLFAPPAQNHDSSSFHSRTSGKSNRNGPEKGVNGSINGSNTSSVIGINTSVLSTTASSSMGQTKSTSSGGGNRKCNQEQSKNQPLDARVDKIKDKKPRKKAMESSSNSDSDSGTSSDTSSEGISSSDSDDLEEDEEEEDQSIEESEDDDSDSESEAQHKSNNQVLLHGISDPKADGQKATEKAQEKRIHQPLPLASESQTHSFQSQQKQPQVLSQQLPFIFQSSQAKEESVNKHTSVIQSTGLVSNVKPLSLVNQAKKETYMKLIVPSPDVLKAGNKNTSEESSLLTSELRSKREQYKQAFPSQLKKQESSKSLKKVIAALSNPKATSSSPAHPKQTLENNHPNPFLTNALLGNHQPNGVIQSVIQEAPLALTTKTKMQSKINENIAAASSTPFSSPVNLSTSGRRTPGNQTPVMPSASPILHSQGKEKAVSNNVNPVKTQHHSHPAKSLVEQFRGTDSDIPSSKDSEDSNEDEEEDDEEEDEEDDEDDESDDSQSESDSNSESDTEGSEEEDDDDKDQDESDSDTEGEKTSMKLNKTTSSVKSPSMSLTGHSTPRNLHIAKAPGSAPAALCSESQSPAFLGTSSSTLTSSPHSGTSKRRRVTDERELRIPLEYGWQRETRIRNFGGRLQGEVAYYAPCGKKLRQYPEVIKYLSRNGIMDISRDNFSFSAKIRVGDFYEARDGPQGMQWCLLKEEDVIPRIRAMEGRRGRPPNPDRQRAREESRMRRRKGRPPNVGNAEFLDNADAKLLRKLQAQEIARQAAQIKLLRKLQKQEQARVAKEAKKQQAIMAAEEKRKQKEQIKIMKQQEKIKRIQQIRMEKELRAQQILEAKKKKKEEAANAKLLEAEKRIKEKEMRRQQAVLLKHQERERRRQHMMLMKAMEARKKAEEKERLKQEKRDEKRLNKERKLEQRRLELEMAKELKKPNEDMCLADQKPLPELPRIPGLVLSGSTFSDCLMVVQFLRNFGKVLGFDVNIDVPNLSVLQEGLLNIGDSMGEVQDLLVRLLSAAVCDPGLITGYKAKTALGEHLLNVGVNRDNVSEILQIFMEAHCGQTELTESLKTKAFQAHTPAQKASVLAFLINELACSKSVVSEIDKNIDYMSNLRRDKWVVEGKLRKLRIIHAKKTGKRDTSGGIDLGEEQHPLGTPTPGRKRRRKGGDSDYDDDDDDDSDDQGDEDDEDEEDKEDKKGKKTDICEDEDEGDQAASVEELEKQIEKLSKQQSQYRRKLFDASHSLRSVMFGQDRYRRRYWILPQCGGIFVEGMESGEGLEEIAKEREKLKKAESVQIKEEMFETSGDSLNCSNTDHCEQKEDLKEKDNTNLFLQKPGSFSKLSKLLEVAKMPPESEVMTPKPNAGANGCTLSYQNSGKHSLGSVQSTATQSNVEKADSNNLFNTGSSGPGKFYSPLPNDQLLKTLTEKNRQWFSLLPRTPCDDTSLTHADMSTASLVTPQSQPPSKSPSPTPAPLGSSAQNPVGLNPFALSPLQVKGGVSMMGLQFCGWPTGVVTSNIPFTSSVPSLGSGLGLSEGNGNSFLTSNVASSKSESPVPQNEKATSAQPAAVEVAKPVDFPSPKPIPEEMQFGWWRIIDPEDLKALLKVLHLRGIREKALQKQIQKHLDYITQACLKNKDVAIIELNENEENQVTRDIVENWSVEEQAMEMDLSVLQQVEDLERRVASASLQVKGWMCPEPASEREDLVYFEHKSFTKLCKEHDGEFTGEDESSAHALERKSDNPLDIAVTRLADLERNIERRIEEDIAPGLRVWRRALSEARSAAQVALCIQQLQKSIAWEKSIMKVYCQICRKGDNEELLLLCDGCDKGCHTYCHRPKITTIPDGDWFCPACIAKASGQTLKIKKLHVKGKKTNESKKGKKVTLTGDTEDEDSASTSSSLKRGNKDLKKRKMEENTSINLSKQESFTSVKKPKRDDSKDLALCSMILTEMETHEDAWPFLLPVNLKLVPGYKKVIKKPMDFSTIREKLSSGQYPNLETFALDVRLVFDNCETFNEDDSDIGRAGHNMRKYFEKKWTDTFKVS
Summary of the method: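 Multi-concentration screen (max 110 uM) measuring displacement of acetylated histone H3 peptide from BAZ2B by AlphaScreen, using 50 nM protein, 50 nM peptide and 10 ug/mL streptavidin donor plus Ni-chelate acceptor beads.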
With O=C(O)c1ccc(-c2nc(-c3ccccc3)cs2)cc1 the “activity change, negative = inhibition” value was inactive: 1.31%.
For CCOC(=O)c1c(NC(=O)CSC(=S)N(C)C)sc(C)c1C, the “activity change, negative = inhibition” value was inactive: -6.64%.
For COc1ccc(OC)c(S(=O)(=O)NCC(c2ccco2)N2CCc3ccccc32)c1 (centres undefined), the Potency was inconclusive: 79.4 µM [inhibitor, partial curve].
For O=C(NCC(c1cccnc1)N1CCc2ccccc2C1)C(=O)Nc1ccc(F)cc1F (centres undefined), the Potency was inconclusive: 1.12 µM [inhibitor, full curve, poor fit].
O=C(CCS(=O)(=O)c1nc(-c2ccc3c(c2)OCO3)cc(C(F)(F)F)n1)Nc1ccc(F)cc1F was tested, and the “activity change, negative = inhibition” value was inactive: -5.25%.
With CCN(CC)S(=O)(=O)c1cc(NC(=O)C(=O)c2c(-c3ccccc3)cc3ccccn23)ccc1C the Potency was inconclusive: 8.91 µM [inhibitor, full curve, poor fit].
In the case of CCc1ccc(S(=O)(=O)N/N=C\c2cn(CC(N)=O)c3ccccc23)cc1, the Potency is reported as inconclusive: 79.4 µM [inhibitor, single point].
In the case of Cc1ccc(NC(=O)C2CCN(C(=O)c3cnn(-c4ccccc4)c3-n3cccc3)CC2)cc1C, the “activity change, negative = inhibition” value is reported as inactive: -20.8%.
For Cc1c(C)n(C(=O)CSc2ncn[nH]2)c2ccccc12, the Potency was inconclusive: 6.31 µM [inhibitor, single point].
For O=C(COC(=O)c1ccc2c(c1Cl)C(=O)c1ccccc1C2=O)NC1CC1, the Potency was inconclusive: 79.4 µM [inhibitor, single point].
With COCCN1C(=O)/C(=C/c2ccc(OCc3ccc(C(=O)O)cc3)c(OC)c2)SC1=Nc1ccccc1 the Potency was active: 56.2 µM.
For Cc1oc(C(C)(C)C)cc1C(=O)Nc1ccc2c(c1)OCCO2, the Potency was inconclusive: 79.4 µM [inhibitor, single point].
COc1ccc(C(=O)c2c(C(F)(F)F)oc3c2C(=O)c2ccccc2C3=O)cc1OC was tested, and the Potency was inconclusive: 15.8 µM [inhibitor, single point].
In the case of Cc1ccccc1C(=O)NC(=S)Nc1cccc(NC(=O)C(C)C)c1, the “activity change, negative = inhibition” value is reported as inactive: -11.5%.
For Cc1ccc(C(=O)c2ccc(N3CCN(C)CC3)c([N+](=O)[O-])c2)cc1, the Potency was inconclusive: 79.4 µM [inhibitor, single point].
In the case of O=C(CSc1ncn(-c2ccccc2)n1)Nc1ccc2c(c1)OCCO2, the “activity change, negative = inhibition” value is reported as inactive: -3.34%.
In the case of COc1ccc(CCNC(=O)CCCn2c(=O)c3ccccc3n(CC(=O)Nc3ccc(C)cc3Cl)c2=O)cc1OC, the Potency is reported as inconclusive: 100 µM [inhibitor, single point].
For CC(NC(=O)CN1C(=O)COc2ccc(Cl)cc21)c1ccccc1 (centres undefined), the “activity change, negative = inhibition” value was inactive: -1.99%.
CN(C)CCNc1cc(-c2ccncc2)nc2ccccc12 was tested, and the Potency was inconclusive: 89.1 µM [inhibitor, single point].
With CC(C)Cn1c(S(=O)(=O)O)nc2ccccc21 the “activity change, negative = inhibition” value was inactive: -19.7%.
With Cc1ccccc1/C=N/n1c(-c2ccccn2)n[nH]c1=S the Potency was active: 8.91 µM.
For COc1cc2nc(Nc3ccc(C)c(C)c3)nc(N)c2cc1OC, the Potency was inconclusive: 44.7 µM [inhibitor, partial curve] and inconclusive: 70.8 µM [inhibitor, single point].
With O=C(CCN1CCOCC1)N1CCc2c([nH]c3ccccc23)C1c1cccc(Cl)c1 (centres undefined) the Potency was inconclusive: 50.1 µM [inhibitor, partial curve].
In the case of CCOc1ccc(S(=O)(=O)N(CC(=O)N/N=C/c2ccc(-c3ccc([N+](=O)[O-])cc3)o2)c2ccccc2)cc1, the Potency is reported as active: 22.4 µM.
For CC(=O)c1ccc(NC(=S)NNC(=O)NC2CCCCC2)cc1, the Potency was inconclusive: 56.2 µM [inhibitor, partial curve].
In the case of Cc1cc(C(=O)Nc2ccccc2C)c2ccccc2n1, the Potency is reported as inconclusive: 89.1 µM [inhibitor, single point].
CCOC(=O)c1ccc(NC(=O)Cn2cc(C(=O)c3cccs3)c3ccccc32)cc1 was tested, and the “activity change, negative = inhibition” value was inactive: -22.1%.
For O=c1c2c(nc3c(-c4ccc(Cl)cc4)c[nH]n13)CCC2, the “activity change, negative = inhibition” value was inactive: -1.01%.
In the case of CCOc1cc(/C=C2\SC(=N)N(c3nonc3N)C2=O)ccc1OCC(N)=O, the Potency is reported as inconclusive: 89.1 µM [inhibitor, single point].
For COc1ccc(S(=O)(=O)Cc2ccc(C(=O)N3CCN(c4cc(Cl)ccc4C)CC3)o2)cc1, the “activity change, negative = inhibition” value was inactive: -0.27%.
With O=C1C=C(c2ccc(C(=O)O)cc2)C[C@@H](c2ccc3c(c2)OCO3)C1 the Potency was active: 50.1 µM.
CCOC(=O)c1cc(CC)sc1NC(=O)CN1CCN(C(=O)C2CCCO2)CC1 (centres undefined) was tested, and the Potency was inconclusive: 3.98 µM [inhibitor, full curve, poor fit].
In the case of O=C(NCC1CCCO1)c1ccc(NS(=O)(=O)c2cccs2)cc1 (centres undefined), the “activity change, negative = inhibition” value is reported as inactive: -34%.
For Cc1cccc(OCCNc2cc(N3CCOCC3)ccc2[N+](=O)[O-])c1, the Potency was inconclusive: 25.1 µM [inhibitor, full curve].
For O=[N+]([O-])c1ccc(CN2CCC(Cc3ccccc3)CC2)cc1, the Potency was active: 50.1 µM.
For O=c1oc2c(O)c(O)cc3c(=O)oc4c(O)c(O)cc1c4c23, the Potency was active: 0.794 µM.
With CC(C)=NOc1nc(N(C)C)nc(N2CCOCC2)n1 the “activity change, negative = inhibition” value was inactive: -14.3%.
In the case of Cc1cccc(NC(=S)N2CCCN(c3ncccc3[N+](=O)[O-])CC2)c1, the Potency is reported as inconclusive: 79.4 µM [inhibitor, single point].
Cc1cccc(N2CN=c3s/c(=C\c4ccncc4)c(=O)n3C2)c1 was tested, and the Potency was inconclusive: 89.1 µM [inhibitor, single point].
In the case of COCCN(C(=S)Nc1c(C)cccc1C)C(C)c1ccco1 (centres undefined), the “activity change, negative = inhibition” value is reported as inactive: -12.1%.
For O=C(N/N=C/C(Br)=C/c1ccccc1)NC1CCCCC1, the Potency was inconclusive: 56.2 µM [inhibitor, partial curve, poor fit].
For COc1ccc2c(c1)O/C(=C\c1ccco1)C2=O, the Potency was active: 14.1 µM.
For CN1c2ccccc2C(C)(C)C12C=Nc1c(ccc3ccccc13)O2 (centres undefined), the Potency was active: 50.1 µM.
With NC(N)=NC(=O)c1nc(Cl)c(N)nc1N the “activity change, negative = inhibition” value was inactive: 5.69%.
In the case of COC(=O)C1=C(N)Oc2cc(C)n(CC3CCCO3)c(=O)c2C1c1ccc(Cl)c(Cl)c1 (centres undefined), the Potency is reported as inconclusive: 39.8 µM [inhibitor, partial curve].
With S=c1[nH]nc(-c2ccc(Cl)cc2)n1/N=C/C=C/c1ccco1 the Potency was inconclusive: 35.5 µM [inhibitor, partial curve].
For NS(=O)(=O)c1ccc(NC(=O)COC(=O)/C(=C/c2cccs2)c2cccs2)cc1, the Potency was inconclusive: 50.1 µM [inhibitor, partial curve].
C=CCN1C(=O)/C(=C2/C(=O)N(CC(=O)O)c3ccccc32)S/C1=N/c1nccs1 was tested, and the Potency was active: 12.6 µM.
c1coc(CNc2ncnc3c2oc2ccccc23)c1 was tested, and the Potency was inconclusive: 70.8 µM [inhibitor, single point].
In the case of O=C(/C(C=Nc1ccc(F)cc1)=C(/O)c1ccco1)C(F)(F)F, the Potency is reported as inconclusive: 70.8 µM [inhibitor, partial curve].
For CN(Cc1ccccc1)c1nc2c(c(=O)[nH]c(=O)n2C)n1CCCc1ccccc1, the Potency was inconclusive: 79.4 µM [inhibitor, single point].
In the case of Cc1ccccc1NS(=O)(=O)c1cc2c(cc1C)N(C)CCO2, the Potency is reported as inconclusive: 100 µM [inhibitor, partial curve, poor fit].
COc1ccc(CC(=O)OC(C)CN2CCCC2)cc1 (centres undefined) was tested, and the Potency was inconclusive: 89.1 µM [inhibitor, single point].
In the case of CN(Cc1nccn1C)C(=O)CC1C(=O)NCCN1CC(c1ccccc1)c1ccccc1 (centres undefined), the Potency is reported as inconclusive: 79.4 µM [inhibitor, single point].
In the case of COc1ccc(-n2cc(-c3ccccc3)c3c(NCCCN4CCOCC4)ncnc32)cc1, the Potency is reported as inconclusive: 100 µM [inhibitor, partial curve, poor fit].
In the case of COc1ccc(NS(=O)(=O)c2ccc(NC(=O)c3ccc(CN4CCOCC4)cc3)cc2)cc1, the Potency is reported as inconclusive: 50.1 µM [inhibitor, partial curve].
With COc1ccc(CN2CCNC(=O)C2CC(=O)NCCC2=CCCCC2)cc1OC (centres undefined) the Potency was inconclusive: 79.4 µM [inhibitor, single point].
For COc1cc(Br)c(C2CC(=O)Nc3cc4c(cc32)OCCO4)cc1OC (centres undefined), the Potency was inconclusive: 44.7 µM [inhibitor, partial curve].
CC(=O)NC1=NC(=O)/C(=C/c2cc(C)n(-c3ccc(NC(C)=O)cc3)c2C)S1 was tested, and the Potency was inconclusive: 79.4 µM [inhibitor, single point].
With O=C(O)CN1C(=O)/C(=C\c2cn(-c3ccccc3)nc2-c2ccccc2)SC1=S the Potency was inconclusive: 44.7 µM [inhibitor, partial curve].
O=C(COc1ccc(Cl)cc1Cl)NCCSc1ccc(Cl)cc1 was tested, and the “activity change, negative = inhibition” value was inactive: 50.3%.
With Nc1cccc(CCc2nc3cc4ccccc4cc3[nH]2)c1 the Potency was inconclusive: 44.7 µM [inhibitor, partial curve].
In the case of COCCNC(=O)c1cc(S(=O)(=O)N2CCCCC2)ccc1N1CCOCC1, the Potency is reported as inconclusive: 100 µM [inhibitor, single point].
In the case of Cn1cccc1/C=N/N1CCN(Cc2ccccc2)CC1, the Potency is reported as active: 50.1 µM.
With CNC(=O)c1ccc(-c2sc3nc(N4CCOCC4)c4c(c3c2N)CC(C)(C)OC4)o1 the Potency was inconclusive: 89.1 µM [inhibitor, single point].
In the case of Clc1cc(Br)ccc1OCCCNCc1ccccc1, the Potency is reported as inconclusive: 89.1 µM [inhibitor, single point].
With O=C(Oc1ccc2ccccc2c1)C1CCC1 the Potency was inconclusive: 100 µM [inhibitor, single point].
For C/C(=N\NC(=O)c1c(Cl)c(C)nn1C)c1cccc(NC(=O)C2CCCC2)c1, the Potency was inconclusive: 0.794 µM [inhibitor, full curve, poor fit].
In the case of COc1cc(C(Nc2ccccn2)c2c(NC(=O)c3ccco3)sc(C)c2C)cc(OC)c1OC (centres undefined), the Potency is reported as inconclusive: 44.7 µM [inhibitor, partial curve].
